From publication PMC4336329 (PLoS ONE, 2015)
About 2,200 (0.71%) of roughly 310,000 compounds showed an effect of 50% or more. Effects have a minus sign here. Some of the results follow.

These compounds were tested against human ether-à-go-go-related gene (hERG) potassium channel (human, UniProt Q12809) (assay: primary screen, population patch clamp on CHO cells stably expressing hERG).
Sequence of human ether-à-go-go-related gene (hERG) potassium channel (Q12809 whole entry, looked up): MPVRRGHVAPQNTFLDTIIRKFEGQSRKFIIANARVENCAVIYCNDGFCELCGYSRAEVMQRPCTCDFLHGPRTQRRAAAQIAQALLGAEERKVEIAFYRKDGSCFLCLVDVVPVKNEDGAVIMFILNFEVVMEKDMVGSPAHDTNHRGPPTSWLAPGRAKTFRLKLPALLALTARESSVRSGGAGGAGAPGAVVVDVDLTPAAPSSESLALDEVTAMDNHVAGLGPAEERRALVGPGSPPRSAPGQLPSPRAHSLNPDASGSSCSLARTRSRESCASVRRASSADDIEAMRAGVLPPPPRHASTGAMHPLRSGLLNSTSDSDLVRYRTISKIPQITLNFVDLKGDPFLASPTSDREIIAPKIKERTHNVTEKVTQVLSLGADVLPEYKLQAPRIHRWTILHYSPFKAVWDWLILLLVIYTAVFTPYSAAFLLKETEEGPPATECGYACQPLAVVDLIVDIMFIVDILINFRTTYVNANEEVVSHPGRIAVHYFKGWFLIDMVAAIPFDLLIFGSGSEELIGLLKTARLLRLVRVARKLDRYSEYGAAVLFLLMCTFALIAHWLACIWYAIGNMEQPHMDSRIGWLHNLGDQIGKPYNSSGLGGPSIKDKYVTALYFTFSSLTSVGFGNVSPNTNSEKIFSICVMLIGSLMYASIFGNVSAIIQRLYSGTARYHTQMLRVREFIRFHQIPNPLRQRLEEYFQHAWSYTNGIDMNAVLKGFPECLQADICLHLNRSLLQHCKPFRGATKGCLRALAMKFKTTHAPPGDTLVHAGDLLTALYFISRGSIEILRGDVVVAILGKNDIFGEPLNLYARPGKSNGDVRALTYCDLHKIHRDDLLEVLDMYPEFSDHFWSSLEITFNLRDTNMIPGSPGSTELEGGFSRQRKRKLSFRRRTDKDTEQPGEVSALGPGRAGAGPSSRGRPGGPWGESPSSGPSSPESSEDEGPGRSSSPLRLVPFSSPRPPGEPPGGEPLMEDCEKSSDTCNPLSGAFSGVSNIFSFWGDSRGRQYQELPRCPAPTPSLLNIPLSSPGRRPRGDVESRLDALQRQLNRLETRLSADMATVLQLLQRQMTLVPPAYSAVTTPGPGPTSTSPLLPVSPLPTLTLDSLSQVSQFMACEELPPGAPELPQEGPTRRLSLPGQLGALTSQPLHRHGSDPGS

Going from `Cc1cc(C)cc(NC(=O)COC(=O)c2cccc(S(=O)(=O)N3CCCCC3)c2)c1` to `CN1CCN(S(=O)(=O)c2cccc(C(=O)Nc3sc4c(c3-c3nc5ccccc5[nH]3)CCCC4)c2)CC1`, the “hERG current change (%, negative = inhibition) at 1uM” value falls from 6.02% to 0.151%.

First: CCC1CCCCN1C(=O)COc1cc(=O)n(C)c2ccccc12 (stereo not shown)
Second: CCOC(=O)N1CCC(NC(=O)CCc2cn(C)c3ccccc23)CC1
The “hERG current change (%, negative = inhibition) at 1uM” value of the first is higher: 6.41% for the first, -8.18% for the second.

Compared with `Fc1ccc(-c2nnc3n2CCCCC3)cc1`, `O=C(O)COc1ccccc1/C=N/NC(=O)CSc1nnc(-c2ccc(Cl)cc2)n1C1CCCCC1` is higher in “hERG current change (%, negative = inhibition) at 1uM” value: 9.08% for the first, 9.47% for the second.

Going from `CC(NC(=O)COC(=O)Cc1ccsc1)C1CC2CCC1C2` (stereo not shown) to `Cc1ccc(N2CC(C(=O)OCC(=O)Nc3ccccc3C)CC2=O)cc1` (stereo not shown), the “hERG current change (%, negative = inhibition) at 1uM” value rises from 0.548% to 10.7%.

Compared with `CC(Cc1cccnc1)NC(=O)c1cc(COc2ccc(F)cc2Cl)on1` (stereo not shown), `Cn1c(=O)c2c(nc(NCCNC(=O)c3ccco3)n2Cc2ccc(F)cc2)n(C)c1=O` is higher in “hERG current change (%, negative = inhibition) at 1uM” value: -9.74% for the first, 6.86% for the second.

Compared with `Cc1cc(Cl)c(C)c(S(=O)(=O)N2CCN(C(=O)C3CCCO3)CC2)c1Cl` (stereo not shown), `Cc1ccc(S(=O)(=O)N2CCN(C(=O)c3n[nH]c4ccccc34)CC2)cc1` is higher in “hERG current change (%, negative = inhibition) at 1uM” value: 1.36% for the first, 6.59% for the second.

Compared with `CCOc1ccccc1NC(=O)n1ncc2c(C)cccc21`, `Cc1ccccc1NC(=O)C(=O)NC(C)CCc1ccccc1` (stereo not shown) is higher in “hERG current change (%, negative = inhibition) at 1uM” value: 8.44% for the first, 13.9% for the second.

Compared with `COc1ccc(/C=C/C(=O)OCC(=O)Nc2ccc(S(N)(=O)=O)cc2)cc1OC`, `COc1ccc(N2CCN(S(=O)(=O)CCNC(=O)/C=C/c3ccc4c(c3)OCO4)CC2)cc1` is higher in “hERG current change (%, negative = inhibition) at 1uM” value: 1.84% for the first, 12.1% for the second.

Going from `CCN(CC)c1ccc(N2C(=O)/C(=C/c3ccccn3)SC2=S)cc1` to `CN1C(=O)C2C(c3ccc(N(C)C)cc3)=NN(Cc3ccccc3)C2C1=O` (stereo not shown), the “hERG current change (%, negative = inhibition) at 1uM” value falls from 14.8% to 11.6%.

Going from `COc1ccccc1C1C(C#N)=C(N)Oc2c1oc(CO)cc2=O` (stereo not shown) to `CCCOC1(NC(=O)c2ccccc2)C(C)=CC(=O)C=C1C`, the “hERG current change (%, negative = inhibition) at 1uM” value falls from 0.727% to -14.7%.

Compared with `Cc1cccc(C(=O)OCc2cncs2)c1`, `COC(=O)c1cccc(-c2ccc(C(c3c(C)[nH][nH]c3=O)c3c(C)[nH][nH]c3=O)o2)c1` is lower in “hERG current change (%, negative = inhibition) at 1uM” value: 4.46% for the first, -2.67% for the second.

Going from `CCOC(=O)c1c(C)[nH]c(N=Nc2ccccc2Cl)c1C` to `CCOC(=O)c1ccccc1NC(=O)CSc1nnc(Cc2cccn2C)n1-c1ccc(C)cc1`, the “hERG current change (%, negative = inhibition) at 1uM” value falls from 10.2% to -6.8%.

Compared with `CCOc1ccc(S(=O)(=O)N2CN3CCN(C3)C2)cc1`, `CCOc1ccc(S(=O)(=O)NCCC(=O)NCC(c2cccs2)N2CCOCC2)cc1` (stereo not shown) is lower in “hERG current change (%, negative = inhibition) at 1uM” value: 4.02% for the first, 2.32% for the second.

Compared with `CC1CN(c2nnnn2-c2ccccc2)CC(C)O1` (stereo not shown), `Cc1cc(C(=O)N[C@@H](c2ccccc2)[C@]2(C)C[C@H]2[C@@H](C)C(=O)Nc2ccc3ccccc3c2)no1` is higher in “hERG current change (%, negative = inhibition) at 1uM” value: -16.8% for the first, 3.85% for the second.

Going from `COc1cc(S(=O)(=O)N2CCN(C)CC2)c(OC)cc1Br` to `CCOC(=O)c1c(CN2CCCCC2)n(C)c2cc(Br)c(OC)cc12`, the “hERG current change (%, negative = inhibition) at 1uM” value rises from -3.58% to 9.14%.

Going from `C/C=C/c1ccc(OCCCCN2CC(C)CC(C)C2)c(OC)c1.O=C(O)C(=O)O` (stereo not shown) to `COc1ccc(N(C)C(=O)CCC(=O)Nc2ccc3nc(N4CCOCC4)cc(C)c3c2)c(OC)c1`, the “hERG current change (%, negative = inhibition) at 1uM” value rises from -32.3% to 0.874%.

First: CC(C)c1ccc(NC(=O)CCNC(=O)Cn2cnc3ccccc3c2=O)cc1
Second: C[C@H](NC(=O)c1cc2c(cn1)[nH]c1ccccc12)C(=O)O
The “hERG current change (%, negative = inhibition) at 1uM” value of the first is higher: 11.6% for the first, 7.61% for the second.

Going from `S=c1[nH]nc(-c2ccc(Cl)cc2)n1/N=C/C=C/c1ccco1` to `CC(C)(C)OC(=O)NCCc1nnc(SCc2ccc(Cl)cc2)o1`, the “hERG current change (%, negative = inhibition) at 1uM” value falls from 15.2% to -16.1%.

Going from `Cc1cc(N=CC2=C(O)CCCC2=O)no1` to `CC1=C([N+](=O)[O-])C(c2ccc(O)c(O)c2)NC(=O)N1` (stereo not shown), the “hERG current change (%, negative = inhibition) at 1uM” value rises from 6.14% to 9.61%.

Compared with `COC1=C/C(=C/c2c(N)n3nc(CC(=O)N4CCCCC4)sc3nc2=O)C=CC1=O`, `COc1cc(CC(NC(C)=O)C(=O)NC2CCN(c3nc(C)cc(C)c3C#N)CC2)cc(OC)c1` (stereo not shown) is lower in “hERG current change (%, negative = inhibition) at 1uM” value: 8.31% for the first, -6.05% for the second.

Going from `O=C(CCn1c(=O)oc2ccccc21)N1CCOCC1` to `CCO[C@@H]1OC(C(=O)N2CCN(Cc3ccc4c(c3)OCO4)CC2)=C[C@H](c2csc3ccccc23)[C@H]1CCCO`, the “hERG current change (%, negative = inhibition) at 1uM” value falls from 17.4% to -1.8%.

For `C=CCc1c(C)nc2c(C)cccc2c1SC(=N)N.Cl`, the “hERG current change (%, negative = inhibition) at 1uM” value was 7.72%.
